# Article PMC7819943, “Rice protein-binding microarrays: a tool to detect cis-acting elements near promoter regions in rice”
# The other results are listed elsewhere or left out.
# Molecular target: T1, OsWOX13 (Oryza sativa, UniProt Q5QMM3 1-267)
# T1 sequence: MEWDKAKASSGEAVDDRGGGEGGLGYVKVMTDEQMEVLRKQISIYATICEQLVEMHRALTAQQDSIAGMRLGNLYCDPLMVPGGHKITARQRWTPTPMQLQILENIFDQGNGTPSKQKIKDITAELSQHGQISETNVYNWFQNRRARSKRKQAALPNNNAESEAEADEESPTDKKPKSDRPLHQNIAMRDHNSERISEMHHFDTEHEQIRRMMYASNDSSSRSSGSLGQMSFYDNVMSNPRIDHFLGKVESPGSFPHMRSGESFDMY
# Test: protein-binding microarray (RPBM); PBS, 2% BSA, 51.3 ng/ul salmon testes DNA, 50 uM zinc acetate, 200 nM TF, 25 C, 1 h; high values mean tight binding
# Details: protein: recombinant; tags: N-terminal polyhistidine and DsRed monomer fusion (pET32a); label: CyDye5-dUTP incorporated in the synthesized complementary strand; 3' TTTTT single-stranded linker to array surface; dsDNA, one strand shown
# Outline: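 The binding signal is fluorescence intensity per feature, in arbitrary units, read on an Axon 4000B scanner. Polyhistidine- and DsRed-tagged transcription factors (N-terminal fusions) from E. coli BL21-CodonPlus were purified on Ni–NTA and applied at 200 nM for 1 h at 25 °C to a double-stranded, BSA-blocked custom Agilent array in buffer with 50 µM zinc acetate.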
row,Sequence,binding signal
1,AACCAGTAACTTTGGTTAAATTTATAGATTAATTTAGCAACGGAGTCACCTAGTGCAG,4560 fluorescence intensity (a.u.)
2,CATAGACGGATTGATGCAAGAAAACCGTTGGGGCTAAAGCCGGAGTCACCTAGTGCAG,9430 fluorescence intensity (a.u.)
3,TAACTCTTTGATTATAATGATGATTATAATGATTATCTTGCGGAGTCACCTAGTGCAG,40200 fluorescence intensity (a.u.)
4,CAGCCTACCTATCTCCTTAATTATAACGGGAGGGAAACCCCGGAGTCACCTAGTGCAG,3180 fluorescence intensity (a.u.)
5,TTCCACTCAGATCACGGCCGTTGATTTACTTTCGACGGTCCGGAGTCACCTAGTGCAG,3170 fluorescence intensity (a.u.)
6,TAAAATTTACTTTACTAATAATTACCATGATACCATCTTTCGGAGTCACCTAGTGCAG,8320 fluorescence intensity (a.u.)
7,TCACTTGATTAGGGTAGCCGCATCTCTTAGAAAGATAAATCGGAGTCACCTAGTGCAG,22600 fluorescence intensity (a.u.)
8,ATGATTGATGGTACGAATGATGGCGGCAGTAGTTTCTCTCCGGAGTCACCTAGTGCAG,50100 fluorescence intensity (a.u.)
9,TATACATTATTAAATTTAATAAAACTAATTTAATATGTTGCGGAGTCACCTAGTGCAG,24900 fluorescence intensity (a.u.)
10,CATGATTTTCTAAAATATATATATATCCATGCGAACTTCGCGGAGTCACCTAGTGCAG,20900 fluorescence intensity (a.u.)
11,ATTCGATAATATTTGATTGTGTTTTCATATCTGAGGTTTTCGGAGTCACCTAGTGCAG,5820 fluorescence intensity (a.u.)
12,ATAACTATAATTATATGTTGTTTAGCATATATTAAGGTTTCGGAGTCACCTAGTGCAG,16400 fluorescence intensity (a.u.)
13,AACAAATTAACAATATGATCGATCGACGATAACGAACTGACGGAGTCACCTAGTGCAG,23000 fluorescence intensity (a.u.)
14,TGGTAAATTTGTTATTTGATAGGTCCAAGAAGAACGATTCCGGAGTCACCTAGTGCAG,21200 fluorescence intensity (a.u.)
15,TTTAATTGTATTAACACTCGTGAGAATGATACATGAGATCCGGAGTCACCTAGTGCAG,29000 fluorescence intensity (a.u.)
16,CAATACATAACAGACAAATTATCAAAATAGATTAAAGTTTCGGAGTCACCTAGTGCAG,4710 fluorescence intensity (a.u.)
17,CTTCTCTGTAATTGTTTATTTCTTCTAAATGTAATGAAGTCGGAGTCACCTAGTGCAG,11800 fluorescence intensity (a.u.)
18,CATCCACTAATTAACAAGATGCCACATCATCATCCACTAACGGAGTCACCTAGTGCAG,17000 fluorescence intensity (a.u.)
19,AGACAACAAATCACATTTAATTCATCTACACAGCAGCACCCGGAGTCACCTAGTGCAG,5330 fluorescence intensity (a.u.)
20,TAATAAAACTAATTTGATTTATTAGATACTGCTAAATTTTCGGAGTCACCTAGTGCAG,8080 fluorescence intensity (a.u.)
21,CATCACTGTAACATTTCAATCTCTTCTATCGGTAGCATGACGGAGTCACCTAGTGCAG,3210 fluorescence intensity (a.u.)

row,Sequence,binding signal
1,TTATTGATAAATGATGATAAAATATAATCGAGAACCAAACCGGAGTCACCTAGTGCAG,6160 fluorescence intensity (a.u.)
2,AGCTAATTAAGCTAGTGAGAGCTAGTGGAGGTACATGGCTCGGAGTCACCTAGTGCAG,11600 fluorescence intensity (a.u.)
3,TCCCAATTATTGGACCTCGACCGCTCCTAAATCCCCTGCCCGGAGTCACCTAGTGCAG,18000 fluorescence intensity (a.u.)
4,TTGATAATTGGGCACCTATGCCCGACACATAAAACACACTCGGAGTCACCTAGTGCAG,22200 fluorescence intensity (a.u.)
5,TCTGAATCAATCACACTCCTTGCACAATGCCTTCACTGTCCGGAGTCACCTAGTGCAG,18400 fluorescence intensity (a.u.)
6,AATACAACGTGTGATTGGACTAGATCGGATAAGTAATTTACGGAGTCACCTAGTGCAG,9210 fluorescence intensity (a.u.)
7,ATCTAGATAATTAAACTGTCATAAATATATTAATACCTCGCGGAGTCACCTAGTGCAG,22100 fluorescence intensity (a.u.)
8,GGGAGATTGAGTTTGGCCCGCACAGGGTCTTGTACAAGGACGGAGTCACCTAGTGCAG,4500 fluorescence intensity (a.u.)
9,GATTAATTATTAGAGGAGGAGGAGAAGATTAACAAGATCACGGAGTCACCTAGTGCAG,11000 fluorescence intensity (a.u.)
10,ACCAACAATAATTTCGCTGTCCACCAATTGCGACCAATACCGGAGTCACCTAGTGCAG,4680 fluorescence intensity (a.u.)
11,TGTTAACTAATTAAATACCCATTATCAAACATTTAATTGACGGAGTCACCTAGTGCAG,22900 fluorescence intensity (a.u.)
12,GCTAATACTTAATTAATAACGCGCTAATAAACCGCTCCGTCGGAGTCACCTAGTGCAG,16900 fluorescence intensity (a.u.)
13,GTCAGTCACTGGACATTAATCACGTCAGTGATGCTGCTAACGGAGTCACCTAGTGCAG,4500 fluorescence intensity (a.u.)
14,ACTGAACATCAATCAACATTTGCAAATCTACAGACTGCAGCGGAGTCACCTAGTGCAG,20700 fluorescence intensity (a.u.)
15,CTAACTATCGAAATAATTGGGGTTAAGATTTTCGGTATTGCGGAGTCACCTAGTGCAG,7150 fluorescence intensity (a.u.)
16,GTTTGATTAGGGTAGATAGAGAGAGAGGGGTTGGGTTTGGCGGAGTCACCTAGTGCAG,44200 fluorescence intensity (a.u.)
17,ACTAATTAAGAAGTCTTTTGAGCTACTCCACCGGACAATTCGGAGTCACCTAGTGCAG,6580 fluorescence intensity (a.u.)
18,AAAAGACTAATTAGCATCTCCCGAAAACTGAACCGACATACGGAGTCACCTAGTGCAG,19100 fluorescence intensity (a.u.)
19,TCGAAGGACTAATATGGATAGATTGAAACATCAAGGACTACGGAGTCACCTAGTGCAG,5530 fluorescence intensity (a.u.)
20,CCTCCAATCAACTGTACAATGAGTAGCTCATTTCTCTTTTCGGAGTCACCTAGTGCAG,16600 fluorescence intensity (a.u.)
21,CAGGACTAATTGGGGTTGCAAACTGGGACTACAAACTACTCGGAGTCACCTAGTGCAG,28300 fluorescence intensity (a.u.)
